SMILES strings stand for the structures. Out of some 48,000 compounds screened, about 120 (0.25%) were called active. Not shown: some 4% with an inconclusive outcome. Calls come from the whole dose curve; as a rule, active = well fitted activation curve with a large enough effect; inconclusive = small, poorly fitted or top-dose-only effect, or another doubt; inactive = no such curve, though single readings can be large or run the other way. The list shows a part of the results.

A short description of the test: Primary qHTS for Identification of Small Molecule Activators of Huntingtin-Antisense Promoter Activity. Note: nearly all actives have a fitted effect of over 55% in size. The conditions noted are these: HEK293 HTT-AS promoter firefly luciferase reporter (activity 0% = vehicle and -100% = no light), 24 h; series mostly up to 57.5 µM; activity change, positive = activation: at the top concentration. In short, it runs like this: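 Luminescence was read after Dual-Glo reagent and a 10 min room-temperature incubation. Values were normalized to vehicle (0% activity) and zero RLU (-100% activity). Reporter HEK293 cells had been exposed to compounds (up to 57.5 uM final) for 24 h.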
With `COc1cccc(-c2nc(SCC(=O)NC3CCCC3)c(-c3ccccc3)[nH]2)c1`, the “activity change, positive = activation” value was inactive: -21.9%. Under `CCOc1ccc(-c2nc(SCC(=O)NC3CCCC3)c(-c3ccccc3)[nH]2)cc1OC` stands inactive: -10.5%; under `COc1ccc(-c2cnn3c(C)cc(C)nc23)cc1OC`, inactive: 4.1%. Under `Cc1c(NC(=O)c2cccc3c(Cl)cccc23)cccc1-c1nc2ccccc2o1` stands inactive: -16%; under `O=C(CCS(=O)(=O)c1cc(Br)cc2c1N(C(=O)C1CC1)CC2)NCc1ccccc1Cl`, inactive: -9.49%.

On to `COC(=O)c1sccc1S(=O)(=O)N(CC(=O)Nc1c(C)cccc1C)c1ccc(C)c(C)c1`, for which the “activity change, positive = activation” value is inactive: -24.7%. To `COc1ccc2c(c1)c(=O)c(S(=O)(=O)c1ccc(C)cc1)cn2Cc1ccccc1C` belongs inactive: -38.5%. Under `CCOC(=O)N1CCc2c(sc3c2c(=O)n(Cc2ccccc2)c(=O)n3CC(=O)Nc2ccc(C)c(C)c2)C1` stands inactive: -15.3%; under `CCC(C(=O)Nc1cc(F)ccc1F)n1nc(-c2cc(C)ccc2C)ccc1=O` (centres undefined), inactive: -32.1%; under `Cc1ccc(NC(=O)CCC(=O)N2CCSc3ccccc32)cc1Cl`, inactive: -33%. Under `Cc1c(Cl)cccc1NC(=O)Nc1nnc(N(C)Cc2ccccc2)s1` stands inactive: -22.3%. On to `Cc1c(N(C)C)c(=O)n(-c2ccccc2)n1C`, for which the “activity change, positive = activation” value is inactive: 1.38%. To `Oc1c(Cl)cc(Cl)c(Cl)c1Cc1c(O)c(Cl)cc(Cl)c1Cl` belongs inactive: -93.1%. Under `CC1=C(C(=O)NCc2ccccc2C)C2(CCCCC2)OC1=O` stands inactive: -1.83%; under `Cc1c(NC(=O)C(C)(C)Oc2ccc(Cl)cc2)cccc1-c1nc2ncccc2o1`, inactive: -48.3%; under `CC(=O)c1ccc(NC(=O)Cn2cc(S(=O)(=O)Cc3ccccc3Cl)c3ccccc32)cc1`, inactive: -24.9%. To `CCC(C(=O)Nc1ccccc1OC)n1nc(C)c2sc3ccccc3c2c1=O` (centres undefined) belongs inactive: -27.7%; to `Cc1ccc(C)c(OCC(=O)Nc2ccc(S(=O)(=O)Nc3onc(C)c3C)cc2)c1C`, inactive: -11.3%; to `Cc1ccc(NC(=O)c2c(C)oc3nc(C)nc(N4CCCC4)c23)c(C)c1`, inactive: -12.6%.

For the compound `CCN(CCCNC(=O)CSc1cc(=O)n(CC)c2ccccc12)c1cccc(C)c1`, the “activity change, positive = activation” value is inactive: -25.6%. In the case of `CC(Sc1cn(CCNC(=O)c2ccccc2F)c2ccccc12)c1ccccc1` (centres undefined), the “activity change, positive = activation” value was inactive: -33.8%. To `COc1ccc(NC(=O)c2c(NCc3sccc3C)sc3c2CCCCC3)c(OC)c1` belongs inactive: -13%. Take `CCOc1ccc(CCNC(=O)c2ccc(CS(=O)Cc3cccc(Cl)c3)o2)cc1` (centres undefined): the “activity change, positive = activation” value was inactive: -18.8%. To `COc1ccc(C)cc1NC(=O)Cn1c(=O)ccc2cc(S(=O)(=O)N3CCC(C)CC3)ccc21` belongs inactive: -37.3%. `COC(=O)c1ccc(NC(=O)CSc2ncc3c(n2)-c2cc(Cl)ccc2N(Cc2ccccc2)S3(=O)=O)cc1`: the “activity change, positive = activation” value was inactive: -12.3%. In the case of `Cc1ccc2c(=O)c(C(=O)c3ccc(Cl)cc3)cn(CC(=O)NC3CCCCC3)c2n1`, the “activity change, positive = activation” value was inactive: -3.86%. Under `O=S(=O)(c1ccc(F)cc1)N(Cc1nc(-c2ccc(Cl)cc2)no1)C1CCCCC1` stands inactive: -26.7%; under `O=C(Nc1c(C(=O)O)oc2ccccc12)c1ccc(C(F)(F)F)cc1`, inactive: 25.6%. To `O=C(CSc1cn(CC(=O)N2CCOCC2)c2ccccc12)Nc1ccccc1` belongs inactive: 0.663%; to `O=C(COCc1cc(-c2ccc3c(c2)OCO3)on1)NCc1ccccc1Cl`, inactive: 11.8%. Under `NC(=O)c1ccc2[nH]ccc2c1` stands inactive: -13.6%. Regarding `COc1ccccc1OCC(=O)NCc1nc(-c2ccc(Cl)cc2)no1`, the “activity change, positive = activation” value is inactive: -21.4%. Under `CCOc1ccc(C(=O)Nc2ccc(S(=O)(=O)Nc3nc(C)cc(C)n3)cc2)cc1OC` stands inactive: -9.23%. Under `CC1=C(c2ccc(C)c(C)c2)S(=O)(=O)N(Cc2ccc(C(=O)NC(C)c3ccccc3)cc2)C1=O` (centres undefined) stands inactive: -19.1%; under `Cc1ccccc1Cc1c(C)nc2nc(SCC(=O)NCCc3ccc(Cl)cc3)nn2c1C`, inactive: 19.6%. Turning to `O=C(COc1ccccc1)Nc1ccccc1OCc1cc(=O)n2ccccc2n1`, the “activity change, positive = activation” value is inactive: 2.06%. In the case of `Cn1c(=O)c2c(nc(Oc3ccccc3)n2Cc2c(Cl)cccc2Cl)n(C)c1=O`, the “activity change, positive = activation” value was inactive: -5.22%. To `COc1ccc(N(CC(=O)Nc2cc(C)ccc2C)S(=O)(=O)c2ccc(OC)c(OC)c2)cc1` belongs inactive: -35.4%; to `COCCCNC(=O)CSc1nc2cc3c(cc2c(=O)n1CCCC(=O)NCc1ccc(OC)cc1)OCO3`, inactive: -12.7%; to `COc1cc(NC(=O)CSc2nc3nc(C)c(Cc4ccc(C)cc4)c(C)n3n2)cc(OC)c1OC`, inactive: -31.6%. Under `O=C(Nc1ccc(F)cc1F)c1ccc2c(O)c(S(=O)(=O)c3ccc(Cl)cc3)c(=O)[nH]c2c1` stands inactive: -12.6%; under `CCOc1ccc(NC(=O)CN2C(=O)COc3ccc(S(=O)(=O)NC4CCCC4)cc32)cc1`, inactive: -20.2%. To `CCc1ccc(C2c3c(oc4ccc(F)cc4c3=O)C(=O)N2c2nc(C)c(C(=O)OC)s2)cc1` (centres undefined) belongs inactive: -7.41%. Consider `Cc1c2cnn(CC(=O)NCCc3ccccc3)c(=O)c2c(C)n1Cc1ccccc1`, for which the “activity change, positive = activation” value is inactive: -5.75%.

In the case of `COc1cc(NC(=O)CSc2ncc(S(=O)(=O)c3ccc(Br)cc3)c(=O)[nH]2)cc(OC)c1`, the “activity change, positive = activation” value is inactive: -6.43%. As for `Cc1cccc(NC(=O)C(=O)NCC(c2ccc3c(c2)OCO3)N2CCN(C)CC2)c1C` (centres undefined), the “activity change, positive = activation” value is inactive: -6.53%. To `COc1ccc(OC)c(NC(=O)c2cccn2-c2nnc(N3CCCCC3)s2)c1` belongs inactive: 2.13%; to `COc1ccc(CNC(=O)c2cc3c(=O)oc4ccc(C)cc4c3s2)c(OC)c1`, inactive: -8.44%. Under `Fc1ccc(-c2noc3ncnc(NC4CCCCC4)c23)cc1` stands inactive: -31.7%. To `CC[C@]1(O)C[C@H]2CN(CCc3c([nH]c4ccccc34)[C@@](C(=O)OC)(c3cc4c(cc3OC)N(C=O)[C@H]3[C@@](O)(C(=O)OC)[C@H](OC(C)=O)[C@]5(CC)C=CCN6CC[C@]43[C@@H]65)C2)C1` belongs “inactive”; to `CCN(CC)S(=O)(=O)c1ccc2oc(C(=O)N(C)Cc3ccccc3)c(C)c2c1`, inactive: -15.8%; to `CCCCOc1cccc(C(=O)N(Cc2sccc2C)C2CCS(=O)(=O)C2)c1` (centres undefined), inactive: -37.4%. In the case of `Cc1cc(Nc2cccc(Cl)c2)nc2ccc(NC(=O)Cc3cccc(C(F)(F)F)c3)cc12`, the “activity change, positive = activation” value was inactive: -52.2%. Under `COc1ccc(Cn2c(=O)c3oc4ccccc4c3n(Cc3ccc(F)cc3)c2=O)cc1` stands inactive: -3.02%. Under `Cc1cccc(N2CCN(C(=O)CCCCn3c(=O)[nH]c4ccsc4c3=O)CC2)c1C` stands inactive: -39.5%; under `COc1cc(C2CC(=O)Nc3cc4c(cc32)OCCO4)cc(Br)c1OC` (centres undefined), inactive: -45.2%; under `COc1ccc(CNC(=O)c2ccc(NC(=O)N3CCCCc4ccccc43)cc2)cc1`, inactive: -27.7%. In the case of `COc1ccc(CNC(=O)c2ccc(CS(=O)(=O)c3ccccc3OC)o2)cc1`, the “activity change, positive = activation” value was inactive: -9.18%.

`CCN(CC)S(=O)(=O)c1ccc2c(c1)N(CC(=O)N1CCN(c3ccc(F)cc3)CC1)C(=O)CO2`: the “activity change, positive = activation” value is inactive: -9.81%.
